Experimental data from the supplement of paper PMC3334620.
In all, about 33,000 sequences were measured (“E-score (-0.5 to 0.5)”: median about -0.032, highest 2% from about 0.36 on). Some of the results follow.

These sequences were tested against T1, Sko1 (UniProt Q02100) (assay: PBM E-score (8-mer binding enrichment) (E-score (-0.5 to 0.5)); higher = stronger / more preferred TF binding; most listed sequences are background and not binding sites). Conditions: protein concentration: 200 nM; construct: GST-full length.
T1 sequence: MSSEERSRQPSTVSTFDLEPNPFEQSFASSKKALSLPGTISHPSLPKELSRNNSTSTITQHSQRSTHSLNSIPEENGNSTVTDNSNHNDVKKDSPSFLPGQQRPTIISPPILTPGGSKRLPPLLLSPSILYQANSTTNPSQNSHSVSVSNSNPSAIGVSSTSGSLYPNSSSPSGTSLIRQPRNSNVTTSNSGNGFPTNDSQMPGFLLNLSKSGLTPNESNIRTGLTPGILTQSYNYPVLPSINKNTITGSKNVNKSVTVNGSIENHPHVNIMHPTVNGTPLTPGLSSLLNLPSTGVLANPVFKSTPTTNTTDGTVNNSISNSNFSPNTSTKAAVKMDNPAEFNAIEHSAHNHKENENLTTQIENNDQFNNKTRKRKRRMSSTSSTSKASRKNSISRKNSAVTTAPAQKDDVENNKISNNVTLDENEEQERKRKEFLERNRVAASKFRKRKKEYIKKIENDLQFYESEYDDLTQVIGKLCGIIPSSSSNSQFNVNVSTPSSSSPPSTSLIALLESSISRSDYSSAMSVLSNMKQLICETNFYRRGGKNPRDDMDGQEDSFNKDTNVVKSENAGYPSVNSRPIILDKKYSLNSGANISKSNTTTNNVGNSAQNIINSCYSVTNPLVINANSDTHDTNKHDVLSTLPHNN
Summary of the method: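 Masliner-normalised scans of fluorescent anti-GST signal were the basis for scoring. That signal came from GST-tagged yeast transcription factors applied at about 100-200 nM to double-stranded universal all-10-mer Agilent arrays on fresh or once-stripped slides. Each ungapped eight-base word, pooled with its reverse complement, received an E-score from the Universal PBM Analysis Suite.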

Going from GCCAAAAA to ATAAACAC, the “PBM E-score” value rises from 0.0186 to 0.261.

Going from ACGAACAG to GCACCGCC, the “PBM E-score” value falls from 0.0082 to -0.218.

First: ACGATCTG
Second: AGCAGGGC
The “PBM E-score” value of the first is higher: -0.0936 for the first, -0.225 for the second.

First: CGCCCTGA
Second: CTGGTATC
The “PBM E-score” value of the first is higher: -0.0378 for the first, -0.153 for the second.

Compared with GCATGAAA, GATCGGTA is lower in “PBM E-score” value: 0.131 for the first, -0.0878 for the second.

Going from AAGACATT to ACATGGAG, the “PBM E-score” value falls from -0.144 to -0.181.

First: GAGCTCCA
Second: ACAAGTGT
The “PBM E-score” value of the first is lower: -0.129 for the first, -0.083 for the second.

First: ATAATTAA
Second: AGCATCAC
The “PBM E-score” value of the first is higher: 0.285 for the first, 0.0723 for the second.

Going from GAGTGGCA to AGTCTCAA, the “PBM E-score” value falls from -0.154 to -0.215.

First: ACTACCTG
Second: GTACACAC
The “PBM E-score” value of the first is lower: -0.0996 for the first, 0.162 for the second.

Compared with ACAAGGCA, CAGCCACG is higher in “PBM E-score” value: -0.175 for the first, -0.0713 for the second.

Going from AAACTCTT to GACAAGGA, the “PBM E-score” value rises from -0.0949 to -0.0908.

Going from CTAGTGCC to GTGGCGGA, the “PBM E-score” value rises from -0.209 to -0.139.

First: CCTTGGAA
Second: AGGATACA
The “PBM E-score” value of the first is lower: -0.122 for the first, -0.0989 for the second.

First: AATCCGTC
Second: CGAAGAAG
The “PBM E-score” value of the first is higher: 0.116 for the first, 0.0371 for the second.

Going from ACCCAAGC to GAACGGGA, the “PBM E-score” value rises from -0.247 to -0.211.

Going from AGGGATTA to AGAAATCC, the “PBM E-score” value falls from 0.00053 to -0.0324.

Compared with CCTGAGCA, ACTACCAC is higher in “PBM E-score” value: -0.096 for the first, 0.0163 for the second.

Going from ACCGTCGA to ATTGAGAA, the “PBM E-score” value rises from -0.124 to 0.166.

Going from GGCGTAAA to ACCTGTCG, the “PBM E-score” value falls from 0.158 to -0.00568.

Compared with CGTCGAAG, AGTGGTAA is lower in “PBM E-score” value: 0.0974 for the first, 0.0561 for the second.

Compared with CGTCCATC, CGAAGATC is lower in “PBM E-score” value: 0.113 for the first, -0.0361 for the second.

Going from TGACTAAA to CTTGATGA, the “PBM E-score” value rises from 0.0792 to 0.138.

Going from CTAAATAC to TGGGCCCA, the “PBM E-score” value falls from 0.14 to -0.0381.

Compared with TAACCAAA, AAAAGGCT is lower in “PBM E-score” value: 0.0594 for the first, -0.224 for the second.

Going from ACTAGGTA to CCGACATA, the “PBM E-score” value falls from 0.0844 to -0.00198.

Compared with ACATTGCT, CGGTCCTA is lower in “PBM E-score” value: 0.0634 for the first, -0.256 for the second.

Compared with TGGGGAAA, CTTGTTGA is higher in “PBM E-score” value: -0.0215 for the first, 0.1 for the second.

Going from AATTCTAA to AAACATCG, the “PBM E-score” value falls from 0.163 to -0.0467.

Going from CAGCATAA to GGATTCAA, the “PBM E-score” value falls from -0.0433 to -0.133.

First: CATAAAAA
Second: CCTAAATC
The “PBM E-score” value of the first is higher: 0.229 for the first, 0.0332 for the second.

First: GACGAGGC
Second: TAGCCACA
The “PBM E-score” value of the first is lower: -0.0768 for the first, 0.0515 for the second.

First: TCTTCCAA
Second: AACACCTT
The “PBM E-score” value of the first is lower: -0.0465 for the first, 0.0845 for the second.

First: AGTAGACT
Second: GACGTTCC
The “PBM E-score” value of the first is lower: -0.00102 for the first, 0.285 for the second.

Going from GAATACTA to ATAGGTTA, the “PBM E-score” value falls from 0.198 to 0.104.

First: AATCCGTG
Second: CAGGAGAA
The “PBM E-score” value of the first is higher: -0.203 for the first, -0.212 for the second.

First: CGTGCGGA
Second: CTAGGTTC
The “PBM E-score” value of the first is higher: 0.0597 for the first, -0.143 for the second.

Compared with GGTACACA, CACAGATG is higher in “PBM E-score” value: -0.251 for the first, 0.0965 for the second.

Compared with ACACCGCG, CCTGTGAG is lower in “PBM E-score” value: -0.0539 for the first, -0.156 for the second.

Going from CCTTATCA to GAACCGGC, the “PBM E-score” value falls from 0.104 to -0.264.

Going from ACCCAGAC to ACATTCTC, the “PBM E-score” value rises from -0.0956 to -0.0004.

First: GCCCATCC
Second: AATCGGCT
The “PBM E-score” value of the first is lower: -0.26 for the first, -0.0254 for the second.

Compared with CAAAGTTC, CTTATTAA is higher in “PBM E-score” value: -0.178 for the first, 0.114 for the second.
